Assay results published in the RNAGym collection of RNA variant scans (doi:10.7554/elife.90254).
The source gives no read counts; variants with many changes may rest on few reads.

B1: LINE1-mini (parent)
chain: GGCAGAGCUCAACACAGCGUGGCAAAGUGGCUGUGGCUAGACUGCC

Variants of: B1
Assay: self-cleavage, relative activity (ratio to wild type); higher = more cleavage; in vitro, sequencing; the parent is a self-cleaving ribozyme

| Variant | self-cleavage |
| --- | --- |
| G2A A26G C42G U43G | 0.06 |
| G1U G5U A41C C42A | 0.04 |
| G2A A41U C42U G44C | 0.09 |
| G1U G7C G19A G22U C31G G44A | 0.05 |
| G1U G33C U34G G35U | 0.03 |
| G1U U20C G29A | 0.43 |
| G2A C3U G21U A41G C42A | 0.21 |
| G2A C8G C45U | 0.2 |
| G1U U9C A16U A24G A26G C42G G44U | 0.01 |
| G2A C8U A12G G21U G22C G29C C31G A39U A41U | 0.03 |
| G1U G7U C13G G33A | 0.08 |
| G1U G7A U32G | 0.08 |
| G1U G7A U32C | 0.13 |
| G1U G29C U43A C45U | 0 |
| G1U G17U U28G C42U | 0.02 |
| G1U G27U G44U | 0 |
| G2A A4G C31U C37A A39G C42U | 0.14 |
| G1U C10G G27C U28C | 0.04 |
| G1U G7C C37G | 0.04 |
| G1U G36C C37G | 0.01 |
| G2A A11G A12U C23A C46U | 0 |
| G1U G27C C31U | 0.01 |
| G1U C31U G44C | 0.08 |
| G1U G21C U38G C42A | 0 |

| Variant | self-cleavage |
| --- | --- |
| G1U C10G C37A | 0.01 |
| G2A A6C G27C G33U U34G G35A | 0.06 |
| G1U G7U G30U G33A | 0.14 |
| G2A C3U G17A G19C G33C A39C | 0.07 |
| G1U G5U A14G G27C U28C G30U U32A A39U G44A | 0 |
| G2A A14C U20G A26G | 0.04 |
| G2A C8A A24U | 1.21 |
| G2A C10U C15G U34A | 0.06 |
| G2A A4U G17U G22A G30C | 0.03 |
| G1U C18G G22C U43A | 0 |
| G2A C8U C46A | 0.16 |
| G1U C23A G36U | 0.02 |
| G1U G2C A6G C18U U38A | 0.01 |
| G2A C8A C10G U32A C45A | 0.03 |
| G2A A4G C15U | 0.33 |
| G2A C3A C8A G19C | 0.36 |
| G1U G19U G29A U32A C37G A41U C42G | 0.01 |
| G1U G2A C45U | 1.37 |
| G1U C13A A14G G21C G40U A41U | 0.01 |
| G1U G5U C46U | 0.05 |
| G2A A4C A24U C46A | 0.13 |
| G2A C3G G33A | 0.34 |
| G1U G19U C23U G33U | 0.03 |
| G2A A4C U38A | 0.53 |

| Variant | self-cleavage |
| --- | --- |
| G1U G7A A25G U32G A41C | 0.03 |
| G2A C8G G19U U34C | 0.07 |
| G2A A4C U9G U28C C46A | 0.02 |
| G2A A6G C13A C37U G40U | 0.02 |
| G2A A16G U28G | 0.95 |
| G1U G29A A39U | 0.34 |
| G1U C37U G40U | 0.08 |
| G2A A6G U20A C23U G30A | 0.05 |
| G2A C10U U20G C42G | 0.06 |
| G1U U20A A26U | 0.14 |
| G1U C15G G30U | 0.02 |
| G1U G19U A39U | 0.14 |
| G2A C3U G7A C8G C15U G35U | 0.98 |
| G1U G2A C3U A24C | 1.31 |
| G2A A11C G30U | 0 |
| G1U G17C U28G | 0.36 |
| G1U G21A G33U G35A G36A G40A C42U | 0.03 |
| G1U G5A C15A U20C C31G | 0.04 |
| G2A A14C G30U | 0.17 |
| G2A A25G A26G G35U U43G | 0.1 |
| G2A C3G G5U U32G | 0.17 |
| G1U G7C A14U | 0.08 |
| G1U G29U U43A | 0.05 |
| G2A A11U A16G G21A G36A | 0.09 |

| Variant | self-cleavage |
| --- | --- |
| G2A A6C A11C A16C G29A G33U C37G U43G | 0 |
| G1U G7C A12C G29A C37U C42A | 0.02 |
| G2A C10A G44A | 0.05 |
| G1U G2A A6U | 0.44 |
| G1U G21U A25U G30C G40U | 0.03 |
| G1U G2C G5U A16G G21A G29A C45A | 0.02 |
| G2A A14U A16G G19C C45G | 0.14 |
| G2A C8A A11U C13U U38A | 0.04 |
| G1U G36U A39C C46A | 0.05 |
| G2A A16U G19C A24C C31G A41G | 0.03 |
| G1U G17U C23G A24G G33C C37U A41C | 0.02 |
| G1U G7A G44U | 0.15 |
| G1U G2U C3G A12G C18U A24C | 0.14 |
| G1U G7A C10U | 0.04 |
| G2A C3G A11U A25G G27U | 0.1 |
| G1U G27U G30U C37A | 0.05 |
| G1U U9C G35C | 0.02 |
| G2A C3A G33A G36A A39U | 0.28 |
| G2A C3U G36C | 0.72 |
| G2A C3A A6C A16U G17U C37G | 0.04 |
| G1U G22C G27A U34G G35U | 0.01 |
| G1U G27U G36C C37A | 0.04 |
| G2A A11C C23A | 0.03 |
| G1U G5A U9C C37U U38C G40U | 0 |

| Variant | self-cleavage |
| --- | --- |
| G2A A6G C10U A12U A39U | 0.03 |
| G2A A26C C31U | 0.11 |
| G2A A6U C10A C23A G40U | 0.01 |
| G1U G2C C23U A26G | 0.05 |
| G1U G7U C10A C37U | 0.01 |
| G1U U28G C45U | 0.46 |
| G2A A4G A24C G27U C31A U38A | 0.71 |
| G2A A11G C23U | 0.03 |
| G2A A4G A25C G27U | 0.07 |
| G1U G2U A4G G7C G17A C31A C45A C46G | 0.01 |
| G1U G5C G40C | 0.01 |
| G2A A41U C45G | 0.25 |
| G1U G30C C46U | 0.12 |
| G2A A11C C23U C45A | 0.02 |
| G2A A11U A12U C37U U43G | 0 |
| G1U G30A A41C | 0.02 |
| G1U G2U C3U U9G | 0.14 |
| G2A C3G U38G | 0.03 |
| G1U C13U C37U C42A | 0.07 |
| G2A C3U G40U | 0.21 |
| G1U G36A U43C | 0.09 |
| G1U U20A G21A | 0.1 |
| G2A A4G G5U C8G C42A | 0.03 |
| G2A A4U C37G | 0.07 |

| Variant | self-cleavage |
| --- | --- |
| G1U G2A C18U A26G G35A C42A | 0.04 |
| G1U C15A G30U | 0.05 |
| G1U G2A A6C C13G C15G U38C | 0.02 |
| G1U U9C C18U G44C | 0 |
| G1U C15A G17C U43C C46G | 0.02 |
| G1U U32G G33U | 0.05 |
| G2A C8A A14G | 0.26 |
| G2A A14U G30U | 0.15 |
| G2A C8A C15A C18U C23U A25C G40U | 0.12 |
| G1U G5U G29U G40U | 0.02 |
| G2A C10U U38C | 0.1 |
| G2A A12G C15A G17C C37G | 0.02 |
| G2A A12C G17C G44A | 0.04 |
| G1U G2U C31A G33C G36C | 0.01 |
| G1U G36U G44A C45U | 0 |
| G2A C8G G29A C42A U43G | 0.07 |
| G1U G19U U20A | 0.06 |
| G2A A25G C45G C46G | 0.55 |
| G1U G2A G29A G35C U38C G40A | 0 |
| G1U C10G G19A A26U C37U | 0.01 |
| G2A A25G G33U | 0.12 |
| G1U G5A G17U G22C C23A G33A U43C | 0.05 |
| G1U G19U A24C A26C | 0.07 |
| G1U C45U C46A | 0.29 |

| Variant | self-cleavage |
| --- | --- |
| G2A A11G U32G G40C | 0.02 |
| G1U U38C A39U | 0.16 |
| G2A A6C C18A G22C A24U | 0.02 |
| G1U G5A C13U | 0.02 |
| G2A C3A A14U C42A | 0.67 |
| G1U G17A A24U U32G C42U | 0.05 |
| G2A C10A C15A U20A G36A | 0.05 |
| G1U U9A G17C U34C G40U A41U | 0.01 |
| G1U G2U A4U U9G | 0.05 |
| G2A A26G U32A | 0.2 |
| G2A A4U G7C G22U | 1.01 |
| G2A A16U G19C | 0.29 |
| G1U U9A C10A G27A | 0.01 |
| G1U G17U U38G G40U | 0.03 |
| G1U G5U A39C | 0.1 |
| G1U G2C G29A G30A G44U | 0.01 |
| G2A C3G G7C U9C C18G U34G | 0.02 |
| G1U G17A C18U C37A | 0.01 |
| G2A C8G A14G | 0.09 |
| G1U C10U G17U G36U C42U | 0.01 |
| G2A C8G G21A A39U | 0.11 |
| G1U G2C C3A G17A A25G U38G C42G | 0.13 |
| G1U G7U U28G C45U | 0.02 |
